# Test results from publication PMC5763115, “Nesprin-2 Interacts with Condensin Component SMC2” (International Journal of Cell Biology, 2017).
# Amino acid sequences for entries named in this document (tags omitted).
# UniProt O95347: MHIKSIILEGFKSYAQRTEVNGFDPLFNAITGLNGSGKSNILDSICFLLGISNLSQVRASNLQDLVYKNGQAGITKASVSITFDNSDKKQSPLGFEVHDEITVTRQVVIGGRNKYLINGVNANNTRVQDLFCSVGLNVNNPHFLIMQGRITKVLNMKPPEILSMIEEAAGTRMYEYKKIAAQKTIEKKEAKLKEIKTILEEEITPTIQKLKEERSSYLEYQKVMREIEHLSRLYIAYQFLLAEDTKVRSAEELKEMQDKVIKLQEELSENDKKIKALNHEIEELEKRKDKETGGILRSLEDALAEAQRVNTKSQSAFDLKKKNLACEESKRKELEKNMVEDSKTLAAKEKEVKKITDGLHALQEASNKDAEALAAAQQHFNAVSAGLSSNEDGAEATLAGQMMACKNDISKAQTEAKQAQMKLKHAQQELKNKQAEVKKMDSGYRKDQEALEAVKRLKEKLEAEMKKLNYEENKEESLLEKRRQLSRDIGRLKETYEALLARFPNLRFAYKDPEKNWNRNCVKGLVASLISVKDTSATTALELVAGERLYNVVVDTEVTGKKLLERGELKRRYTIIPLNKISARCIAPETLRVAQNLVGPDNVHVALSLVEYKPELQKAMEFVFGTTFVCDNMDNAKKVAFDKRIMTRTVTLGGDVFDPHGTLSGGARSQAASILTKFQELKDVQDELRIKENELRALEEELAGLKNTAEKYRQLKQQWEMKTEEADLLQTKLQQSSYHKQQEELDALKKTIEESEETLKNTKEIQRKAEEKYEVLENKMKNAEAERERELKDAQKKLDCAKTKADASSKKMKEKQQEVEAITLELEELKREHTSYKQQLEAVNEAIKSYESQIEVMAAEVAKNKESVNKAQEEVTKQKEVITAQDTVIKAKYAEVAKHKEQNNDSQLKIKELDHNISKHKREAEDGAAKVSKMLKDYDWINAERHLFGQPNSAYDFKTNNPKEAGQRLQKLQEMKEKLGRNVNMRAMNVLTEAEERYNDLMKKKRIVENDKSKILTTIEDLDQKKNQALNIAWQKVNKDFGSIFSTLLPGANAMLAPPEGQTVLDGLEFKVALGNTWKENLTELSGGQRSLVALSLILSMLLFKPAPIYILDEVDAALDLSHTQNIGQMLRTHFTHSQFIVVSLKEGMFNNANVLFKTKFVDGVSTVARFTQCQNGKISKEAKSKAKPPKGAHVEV
# UniProt Q9NTJ3: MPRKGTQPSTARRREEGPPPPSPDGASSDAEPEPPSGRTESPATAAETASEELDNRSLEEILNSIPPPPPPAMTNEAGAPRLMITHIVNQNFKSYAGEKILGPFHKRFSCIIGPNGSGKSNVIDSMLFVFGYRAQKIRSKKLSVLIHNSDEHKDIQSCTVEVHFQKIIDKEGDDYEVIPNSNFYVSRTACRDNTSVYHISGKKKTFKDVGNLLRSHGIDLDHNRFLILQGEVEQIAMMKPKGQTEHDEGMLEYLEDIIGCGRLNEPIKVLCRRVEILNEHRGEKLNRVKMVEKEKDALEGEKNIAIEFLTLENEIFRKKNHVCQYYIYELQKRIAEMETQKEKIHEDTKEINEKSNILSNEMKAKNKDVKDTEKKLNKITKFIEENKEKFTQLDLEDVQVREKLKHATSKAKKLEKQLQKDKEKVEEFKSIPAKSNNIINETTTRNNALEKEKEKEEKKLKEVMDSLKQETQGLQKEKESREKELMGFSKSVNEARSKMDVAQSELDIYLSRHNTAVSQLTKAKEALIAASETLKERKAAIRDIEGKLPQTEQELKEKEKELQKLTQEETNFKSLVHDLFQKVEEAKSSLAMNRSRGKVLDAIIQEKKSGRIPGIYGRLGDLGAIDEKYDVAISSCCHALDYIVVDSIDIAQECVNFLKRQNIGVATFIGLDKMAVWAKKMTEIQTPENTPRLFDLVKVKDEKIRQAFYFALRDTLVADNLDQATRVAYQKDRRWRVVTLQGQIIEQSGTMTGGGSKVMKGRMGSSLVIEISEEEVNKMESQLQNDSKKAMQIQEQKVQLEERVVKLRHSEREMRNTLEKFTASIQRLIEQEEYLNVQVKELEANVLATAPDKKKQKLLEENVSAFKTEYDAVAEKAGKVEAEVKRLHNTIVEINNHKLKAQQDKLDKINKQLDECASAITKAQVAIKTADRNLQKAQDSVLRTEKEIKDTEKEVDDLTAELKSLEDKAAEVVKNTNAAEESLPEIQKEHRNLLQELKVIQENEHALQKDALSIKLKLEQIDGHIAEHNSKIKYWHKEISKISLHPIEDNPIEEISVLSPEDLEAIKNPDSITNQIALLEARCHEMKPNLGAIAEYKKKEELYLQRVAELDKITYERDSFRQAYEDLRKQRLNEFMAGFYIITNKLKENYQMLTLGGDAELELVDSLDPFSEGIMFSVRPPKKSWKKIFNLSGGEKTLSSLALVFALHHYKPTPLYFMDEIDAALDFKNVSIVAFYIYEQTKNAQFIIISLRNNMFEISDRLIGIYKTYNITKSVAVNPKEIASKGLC
# UniProt Q15003: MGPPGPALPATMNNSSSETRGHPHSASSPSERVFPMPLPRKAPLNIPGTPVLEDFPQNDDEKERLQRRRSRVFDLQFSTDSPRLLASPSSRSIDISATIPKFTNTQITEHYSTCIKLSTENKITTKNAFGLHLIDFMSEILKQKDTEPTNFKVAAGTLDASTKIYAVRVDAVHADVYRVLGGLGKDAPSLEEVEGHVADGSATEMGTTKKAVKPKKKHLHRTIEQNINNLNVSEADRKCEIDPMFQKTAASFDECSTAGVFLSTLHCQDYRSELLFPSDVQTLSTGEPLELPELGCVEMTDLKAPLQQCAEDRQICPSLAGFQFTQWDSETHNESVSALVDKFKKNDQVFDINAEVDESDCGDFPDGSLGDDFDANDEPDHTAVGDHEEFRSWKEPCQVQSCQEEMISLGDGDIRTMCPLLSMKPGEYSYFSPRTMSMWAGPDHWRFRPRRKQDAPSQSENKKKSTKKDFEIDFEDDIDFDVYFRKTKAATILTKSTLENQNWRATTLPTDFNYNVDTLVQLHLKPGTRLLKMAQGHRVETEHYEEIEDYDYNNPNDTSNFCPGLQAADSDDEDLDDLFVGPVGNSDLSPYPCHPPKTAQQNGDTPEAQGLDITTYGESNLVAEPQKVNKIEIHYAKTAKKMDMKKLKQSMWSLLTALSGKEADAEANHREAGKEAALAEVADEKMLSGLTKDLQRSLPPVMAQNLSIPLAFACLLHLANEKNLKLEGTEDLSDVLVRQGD
# UniProt Q9UQE7: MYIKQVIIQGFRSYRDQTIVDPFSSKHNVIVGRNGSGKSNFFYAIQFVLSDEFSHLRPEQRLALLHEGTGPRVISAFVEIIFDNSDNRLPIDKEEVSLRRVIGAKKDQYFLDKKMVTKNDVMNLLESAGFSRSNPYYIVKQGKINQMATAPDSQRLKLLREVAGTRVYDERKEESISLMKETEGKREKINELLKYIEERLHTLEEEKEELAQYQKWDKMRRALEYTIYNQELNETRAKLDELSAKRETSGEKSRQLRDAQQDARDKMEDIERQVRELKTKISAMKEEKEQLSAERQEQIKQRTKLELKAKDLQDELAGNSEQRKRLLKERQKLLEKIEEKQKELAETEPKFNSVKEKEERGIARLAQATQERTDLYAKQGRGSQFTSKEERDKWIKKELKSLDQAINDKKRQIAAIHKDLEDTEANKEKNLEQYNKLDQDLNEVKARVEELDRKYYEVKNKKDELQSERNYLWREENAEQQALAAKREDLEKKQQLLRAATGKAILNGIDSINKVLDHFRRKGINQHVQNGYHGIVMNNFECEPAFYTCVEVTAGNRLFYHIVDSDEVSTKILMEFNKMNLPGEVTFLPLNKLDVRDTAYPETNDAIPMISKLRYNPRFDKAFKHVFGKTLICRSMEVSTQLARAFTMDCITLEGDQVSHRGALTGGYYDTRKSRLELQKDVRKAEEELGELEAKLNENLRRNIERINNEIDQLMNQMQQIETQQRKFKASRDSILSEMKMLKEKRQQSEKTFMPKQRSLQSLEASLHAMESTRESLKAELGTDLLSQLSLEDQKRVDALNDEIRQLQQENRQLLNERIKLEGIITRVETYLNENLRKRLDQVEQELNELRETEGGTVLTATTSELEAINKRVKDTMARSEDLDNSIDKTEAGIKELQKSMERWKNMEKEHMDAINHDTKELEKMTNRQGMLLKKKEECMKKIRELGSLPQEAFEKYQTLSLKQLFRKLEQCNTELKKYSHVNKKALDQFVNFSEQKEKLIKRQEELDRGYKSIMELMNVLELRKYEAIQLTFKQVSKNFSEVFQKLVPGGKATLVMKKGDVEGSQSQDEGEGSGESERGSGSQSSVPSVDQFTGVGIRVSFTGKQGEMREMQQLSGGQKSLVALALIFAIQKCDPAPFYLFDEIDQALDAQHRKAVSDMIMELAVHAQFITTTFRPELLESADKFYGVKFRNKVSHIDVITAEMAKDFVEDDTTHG
# Results are given in words; binding and its absence hold for the method and conditions named. Binding seen in cells or lysates may run through a third protein. Some entries that bind do so weakly or less than the wild type. For part of these data: Where a sequence is shown, tags or fusion partners need not be part of it.
# T1: GST-Nesprin-2-SMC (human) (UniProt Q8WXH0)
# T1 sequence: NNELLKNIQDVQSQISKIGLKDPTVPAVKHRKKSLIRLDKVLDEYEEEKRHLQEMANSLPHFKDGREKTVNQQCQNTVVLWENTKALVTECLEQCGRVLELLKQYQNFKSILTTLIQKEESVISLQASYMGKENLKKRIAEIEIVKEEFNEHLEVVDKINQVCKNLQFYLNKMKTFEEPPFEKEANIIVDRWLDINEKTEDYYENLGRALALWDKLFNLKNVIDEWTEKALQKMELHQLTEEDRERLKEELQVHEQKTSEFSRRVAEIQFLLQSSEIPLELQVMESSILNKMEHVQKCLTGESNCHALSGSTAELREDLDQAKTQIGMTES
# Columns and labels:
# [1] = target: Nesprin-2 giant (human (endogenous in HaCaT)) (UniProt Q8WXH0); experiment: co-IP; immunoprecipitation from HaCaT cell lysates with mAb K20-478 (Nesprin-2) or SMC2 specific antibodies, protein A Sepharose, western blot; GFP antibodies as control; unsynchronized cells
# [2] = target: T1, GST-Nesprin-2-SMC (human); experiment: pull-down; GST-Nesprin-2-SMC or GST on Glutathione-Sepharose 4B beads incubated overnight with HaCaT cell lysate (50 mM Tris-HCl pH 7.5, 150 mM NaCl, 1% Nonidet P-40, 0.5% sodium deoxycholate); western blot; unsynchronized cells, and for SMC2 also cells in G0/G1 and enriched for S and M phase (RO-3306 or thymidine/Nocodazole); only the target purified
# [3] = target: SMC2 (human (endogenous in HaCaT)) (UniProt O95347); experiment: co-IP; immunoprecipitation from HaCaT cell lysates with mAb K20-478 (Nesprin-2) or SMC2 specific antibodies, protein A Sepharose, western blot; GFP antibodies as control; unsynchronized cells
# [4] = target: T1, GST-Nesprin-2-SMC (human); experiment: pull-down; GST-Nesprin-2-SMC or GST on Glutathione-Sepharose 4B beads incubated overnight with HaCaT cell lysate (50 mM Tris-HCl pH 7.5, 150 mM NaCl, 1% Nonidet P-40, 0.5% sodium deoxycholate); western blot; unsynchronized cells, and for SMC2 also cells in G0/G1 and enriched for S and M phase (RO-3306 or thymidine/Nocodazole); only the target purified; remark: listed apart in the source
# [5] = target: T1, GST-Nesprin-2-SMC (human); experiment: pull-down; GST-Nesprin-2-SMC or GST on Glutathione-Sepharose beads incubated overnight with lysates of COS7 cells expressing Myc-tagged polypeptides; western blot with Myc mAb 9E10; only the target purified
molecule,measurement,setting,value
SMC4 (from UniProt Q9NTJ3 1-1288),binding,[1],binds
same,binding,[2],binds
"CAP-H (kleisin γ, non-SMC condensin I complex subunit H) (from UniProt Q15003 1-741)",binding,[2],binds
SMC2 (from UniProt O95347 1-1197),binding,[1],binds
same,binding,[2],binds
SMC3 (from UniProt Q9UQE7 1-1217),binding,[2],no binding
Nesprin-2 giant (from UniProt Q8WXH0-1 1-6885),binding,[3],binds
"CAP-H2 (kleisin β, non-SMC condensin II complex subunit H2) (protein, UniProt Q6IBW4 1-605) MEDVEARFAHLLQPIRDLTKNWEVDVAAQLGEYLEELDQICISFDEGKTTMNFIEAALLIQGSACVYSKKVEYLYSLVYQALDFISGKRRAKQLSSVQEDRANGVASSGVPQEAENEFLSLDDFPDSRTNVDLKNDQTPSEVLIIPLLPMALVAPDEMEKNNNPLYSRQGEVLASRKDFRMNTCVPHPRGAFMLEPEGMSPMEPAGVSPMPGTQKDTGRTEEQPMEVSVCRSPVPALGFSQEPGPSPEGPMPLGGGEDEDAEEAVELPEASAPKAALEPKESRSPQQSAALPRRYMLREREGAPEPASCVKETPDPWQSLDPFDSLESKPFKKGRPYSVPPCVEEALGQKRKRKGAAKLQDFHQWYLAAYADHADSRRLRRKGPSFADMEVLYWTHVKEQLETLRKLQRREVAEQWLRPAEEDHLEDSLEDLGAADDFLEPEEYMEPEGADPREAADLDAVPMSLSYEELVRRNVELFIATSQKFVQETELSQRIRDWEDTVQPLLQEQEQHVPFDIHTYGDQLVSRFPQLNEWCPFAELVAGQPAFEVCRSMLASLQLANDYTVEITQQPGLEMAVDTMSLRLLTHQRAHKRFQTYAAPSMAQP",binding,[4],binds
"Nesprin-2-SMC (domain or fragment, human, UniProt Q8WXH0 1436-1766, looked up, Nesprin-2, human, SMC domain, aa 1436-1766, spectrin repeats 11-13; Calculated molecular weight 38.78 kDa (39 kDa); also called Nesprin-2-SMC domain; SMC polypeptide; source: E. coli XL-1 blue, purified (Glutathione-Sepharose 4B, released from GST by thrombin cleavage); not shown: GST, N-terminal, cleaved) NNELLKNIQDVQSQISKIGLKDPTVPAVKHRKKSLIRLDKVLDEYEEEKRHLQEMANSLPHFKDGREKTVNQQCQNTVVLWENTKALVTECLEQCGRVLELLKQYQNFKSILTTLIQKEESVISLQASYMGKENLKKRIAEIEIVKEEFNEHLEVVDKINQVCKNLQFYLNKMKTFEEPPFEKEANIIVDRWLDINEKTEDYYENLGRALALWDKLFNLKNVIDEWTEKALQKMELHQLTEEDRERLKEELQVHEQKTSEFSRRVAEIQFLLQSSEIPLELQVMESSILNKMEHVQKCLTGESNCHALSGSTAELREDLDQAKTQIGMTES",binding,[5],binds
